Data on 167 variants can be found in the RNAGym collection of RNA variant scans (doi:10.1093/nar/gkz1192).

The source gives no read counts; variants with many changes may rest on few reads.

Sequences and labels used below:
B1: CPEB3 Ribozyme (parent)
chain: UAACAGGGGGCCACAGCAGAAGCGUUCACGUCGCAGCCCCUGUCAGAUUCUGGUGAAUCUGCGAAUUCUGCUGUAUAUCUC

The variants in the series derive from B1. Description: self-cleavage, relative activity (ratio to wild type); higher = more cleavage; in vitro, sequencing. Put shortly: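 Barcoded CPEB3 ribozyme mutants, produced by rounds of error-prone PCR, self-cleaved while being transcribed with T7 RNA polymerase for 5 hours at 37°C and during a subsequent 15 min DNase I step before EDTA was added. Sequencing of template-switched cDNA on Illumina gave cleaved and total reads, and DNA sequencing assigned barcodes to variants. Each variant's relative activity is its cleaved/total read fraction divided by the unmutated ribozyme's fraction, averaged across three batches. A variant needed a minimum of 5 reads.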
With A18G U48C U80C, the self-cleavage stood at 0.56. The result for A18G U72C A77G reads 0.73; that for A18U A20G A45C U67C A77U, 0.1. Regarding A18G U58C C59G U80A, the self-cleavage came to 0.14.

Turning to A18G U67A U69A, the self-cleavage was 0.22. On to A18G U25G C27U U69A U80C, for which the self-cleavage was 0.07.

A18U A45G U49C: the self-cleavage amounted to 0.12.

For A18G G55C A64G U69A, the self-cleavage amounted to 0.13. The result for A18U A47G U49A A57G reads 0.2; that for A18G U49C U51G A56U, 0.44; that for A18G G36A U43C A57G U58C, 0.15. The value for A18G U25C A47G U72G U78A was 0.04.

A18G U31C U66A: the self-cleavage was 0.07. The result for A18G U41C U54C reads 0.58; that for A18G U31G G53A, 0.56. For the variant A18G U25C U41C, the self-cleavage was 0.3. The value for A18G U51C U58C U72C was 0.26; that for A18U A20U C62G was 0.06. The result for A18G U25C G30A G63A U78C reads 0.06. The result for A18G U25C U43C U49A U51C A64G reads 0.07; that for A18G U41C G53A G63A, 0.42; that for A18U A28U U54C, 0.24.

In the case of A18G U26C A47C U66C U69G U72A, the self-cleavage amounted to 0.06. For the variant A18G U49A A56U U67C, the self-cleavage was found to be 0.13.

On to A18G U25C U48A, for which the self-cleavage is 0.05. The value for A18U A21G G33C U43A A45U A77U was 0.03; that for A18U A21G U26A U54C was 0.26; that for A18G U41A U49A U54C A57G A64G U78C was 0.15. The result for A18G U54C U76A reads 0.33; that for A18G U41C U43A A45U, 0.19. The value for A18U A28G A35U U48C U51C U66C was 0.1; that for A18U A45C A65G U67C was 0.11. For the variant A18G U26A A35G U41C U51A U54C A56U, the self-cleavage was 0.14. The value for A18U A28U U60C U67C was 0.21. The result for A18G U43C U60C A65G U69A U80C reads 0.06; that for A18G U31G U60A, 0.42.

As for A18G U26C U43C A45G, the self-cleavage was found to be 0.38. Take A18G U25A U67C U74G: the self-cleavage came out at 0.11.

As for A18G U41C U66C U78C, the self-cleavage stood at 0.37. The result for A18G U26A U72A reads 0.33; that for A18U A21G A56G, 0.24; that for A18G U25C G33C U60A A77G U78C, 0.05. With A18G U31C A64G, the self-cleavage was 0.2. The result for A18U A20G C34U reads 0.28; that for A18G U41C U51G U80C, 0.74; that for A18G U43C U48C G53A A64U, 0.11. The value for A18G U26C A28G G33A U54A U66C U78C was 0.07; that for A18G U67G U72A was 0.1; that for A18G G22C U31C A65G was 0.06. As for A18G U43A A47G U72C, the self-cleavage is 0.62. On to A18U A35G C37A G61A A77U, for which the self-cleavage was found to be 0.1. The result for A18G U43C U54C U67C reads 0.11; that for A18G G30A U54A, 0.12. The value for A18U A20C U31C A35U A64U U72G U80C was 0.02; that for A18G U43C A56G U60C A75G was 0.06; that for A18G U49A U67C was 0.15. The value for A18G U26C U43A A45G U60C was 0.21; that for A18G U25C A57G U78A U80C was 0.14. As for A18G U26A U49C, the self-cleavage worked out at 0.14. The result for A18G U41C U67C reads 0.16; that for A18U A20U U31C U43C C71G U80A, 0.05.

A18U A35G U54C A56G U69C: the self-cleavage stood at 0.37. Take A18U A35G C39G U51A U72C U80A: the self-cleavage stood at 0.29.

Take A18G U25A A57U: the self-cleavage worked out at 0.17. The result for A18G U43A A65G U80C reads 0.44; that for A18G U48C A56G G70A, 0.16. The result for A18U A21G U72C U80C reads 0.35; that for A18G G24C A35G A64U U72A A75U, 0.06. Take A18G U43C A45G U67C: the self-cleavage is 0.38. The value for A18G U43A U66C A77U U80A was 0.4; that for A18G G33A A65G C71U U80A was 0.12. The value for A18U A35G U48C U74C was 0.56. Take A18U A21G G36A A57U: the self-cleavage turned out to be 0.17.

Take A18U A21G U26A C29G A45G U49C A57G: the self-cleavage turned out to be 0.02. As to A18G U51A U54A U60A, the self-cleavage came to 0.24. The value for A18G U43C A56C was 0.14.

With A18U A28G C37G U41C, the self-cleavage was found to be 0.12. The value for A18G U43G U48A was 0.23; that for A18G U72C U74C was 0.96.

For the variant A18G U26G C39U A56G U60G U66A C79A, the self-cleavage is 0.03.

In the case of A18G U26C G33A A47G A64G, the self-cleavage was determined as 0.18. The value for A18G U66C U76C was 0.28; that for A18U A28G A65G C71U was 0.12. The value for A18G U26A U80C was 0.9; that for A18G G30A U31A U60A was 0.48; that for A18G U51G U58A was 0.16. The value for A18G U43A A56C U66C was 0.23. Regarding A18G U25G U58G, the self-cleavage stood at 0.29. On to A18G U51C U69C U80C, for which the self-cleavage was 1.19.

With A18G U26C C40A A45G U58A U67C U69G, the self-cleavage was determined as 0.06. The value for A18G U25G A47G G53A A56G was 0.33; that for A18U A35U A64G A65G was 0.19; that for A18U A28G G61C U69C was 0.13. For A18G G55C A64C, the self-cleavage was 0.13.

Take A18G G73A U78C: the self-cleavage came out at 0.98. For A18G U41C C68A, the self-cleavage was 0.19. The result for A18G U25A U26C A57G reads 0.2. The value for A18U A20G U41A A64G was 0.07; that for A18G G24C U25C was 0.2; that for A18U A35G A45U was 0.11.

In the case of A18U A35G A45G, the self-cleavage came out at 0.67. The result for A18G U26A U48A U67C reads 0.05.

As for A18G U51A U60C U72C, the self-cleavage was determined as 0.41.

In the case of A18U A45G A64G U80A, the self-cleavage stood at 0.22. The result for A18U A20U A28G A47G U49C U78A reads 0.04. The value for A18G U48C U69C was 0.8; that for A18G U43C C44U U48A U49C C62G A77G was 0.13; that for A18G G33A U43A A77U was 0.16. With A18G U58C A75U, the self-cleavage came to 0.36.

Regarding A18U A21G A47G U60C, the self-cleavage is 0.34.

As to A18U A20U U72A, the self-cleavage is 0.11.

In the case of A18G U31A A57G U80G, the self-cleavage is 0.26. The value for A18G U25C C40U U58C C62U U80C was 0.04.

Turning to A18G U25C U54C G73U U76C, the self-cleavage was found to be 0.07.

As for A18U A20G U51C A77G, the self-cleavage was 0.19. The value for A18G U31A U54C U66C was 0.18; that for A18G U41C U51A U67C was 0.47.

A18G U67C A77G: the self-cleavage was 0.35.

For A18G U31C A57G, the self-cleavage came out at 0.53. The result for A18U A21G U41C G61A reads 0.14; that for A18G U49C C81U, 0.19. The value for A18G U67G U80C was 0.22; that for A18G G46U U48C was 0.2; that for A18U A21G U25A was 0.38.

For A18G U26A C68A U69G, the self-cleavage came to 0.21. The result for A18G G33U U72G U80A reads 0.07; that for A18U A35G U54G, 0.78; that for A18U A20U A47G U72C U78G, 0.1. A18U A35G A56G: the self-cleavage amounted to 0.23. With A18G U26C A28G G33C U43C U54C U76A, the self-cleavage was 0.18. As to A18U A28G U76A, the self-cleavage worked out at 0.16. For A18U A28G A64U, the self-cleavage came out at 0.1.

For A18U A20G U26A, the self-cleavage stood at 0.52. The value for A18G U41C A56G was 0.54; that for A18G U41C A56U was 0.2.

As to A18G U26C C50A A65G U67A U76A, the self-cleavage was determined as 0.08.

For the variant A18G U48C U58C C62A A75U, the self-cleavage worked out at 0.16. The value for A18U A28G U41C A45U U69C A77G was 0.07; that for A18U A47U U54A U60C was 0.08; that for A18G G30A A77G was 0.34. The result for A18U A28U U80C reads 0.5; that for A18U A45G A56U C59A, 0.1; that for A18U A35G U43A G46C U54G A64U U72C, 0.19. The result for A18U A35G U74G reads 1.03. For the variant A18G U51A U54A A64U U78C, the self-cleavage was 0.32. The value for A18G U51G G52A G53A was 0.97; that for A18U A28G U43A U66A U80A was 0.07.

With A18U A20U C29U U72C, the self-cleavage worked out at 0.08. The value for A18U A45U U51C A64G was 0.04; that for A18G U43A A56G A57G U60A was 0.17.

Take A18G U26A U41C A57G U72A: the self-cleavage is 0.09. The result for A18G U72A U78C reads 0.17; that for A18G U41A U51A U80C, 0.34. The value for A18U A20U G46A A47G A75G was 0.1. The value for A18G G63A U80C was 0.6; that for A18U A20G U41A G63U C71A U72C was 0.07; that for A18U A47G A77G was 0.45. For the variant A18G U49A U78C, the self-cleavage worked out at 0.34. The value for A18G G24A C40U A45G U69A U72A was 0.21; that for A18G U49C C59G A65G U74C U78C was 0.13. For A18G U49A U72A, the self-cleavage was determined as 0.15. The value for A18U A21U A28G G53A was 0.19. The value for A18G U43C A45C A57G U58C G63A was 0. For A18G G24A G33A U51G A64U U69G, the self-cleavage is 0.04. Take A18U A20G U25C A64G C81U: the self-cleavage was found to be 0.07. The result for A18G U26C C32U U80A reads 0.24; that for A18U A20G A35U U60A U66C, 0.22.
